According to patent US20220340642A1 (Kyowa Kirin, published 2022):

T1: soluble recombinant of human LIGHT (His10, GS linker, Asp74-Val240)
T1 chain: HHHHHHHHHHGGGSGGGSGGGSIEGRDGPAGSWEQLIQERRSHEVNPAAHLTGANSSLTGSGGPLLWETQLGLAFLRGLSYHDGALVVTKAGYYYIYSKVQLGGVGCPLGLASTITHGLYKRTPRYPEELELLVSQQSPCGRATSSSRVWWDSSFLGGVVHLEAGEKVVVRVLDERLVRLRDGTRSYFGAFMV

T2: soluble recombinant of human TL1A (His6, GS linker, Leu72-Leu251) (UniProt O95150 72-251)
T2 chain: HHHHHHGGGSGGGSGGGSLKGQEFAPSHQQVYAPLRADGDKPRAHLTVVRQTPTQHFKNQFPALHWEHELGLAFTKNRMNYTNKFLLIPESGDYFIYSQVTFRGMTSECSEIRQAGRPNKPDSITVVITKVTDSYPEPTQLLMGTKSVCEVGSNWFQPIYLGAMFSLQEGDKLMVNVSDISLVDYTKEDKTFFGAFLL

T3: soluble recombinant of human FasL (His6, Pro134-Leu281) (UniProt P48023 134-281)
T3 chain: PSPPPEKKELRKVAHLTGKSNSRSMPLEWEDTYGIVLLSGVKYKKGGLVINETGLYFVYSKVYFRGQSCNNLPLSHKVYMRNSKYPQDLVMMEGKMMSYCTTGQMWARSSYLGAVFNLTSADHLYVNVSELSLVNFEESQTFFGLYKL

T4: Human His6 Fas Ligand/TNFSF6 (Cell Signaling Technology, Inc.) (human, UniProt P48023 133-281)
T4 construct: Bought; confirmed as a trimer by SEC-MALS; also called recombinant human His6 Fas Ligand; soluble human FasL trimer
T4 sequence: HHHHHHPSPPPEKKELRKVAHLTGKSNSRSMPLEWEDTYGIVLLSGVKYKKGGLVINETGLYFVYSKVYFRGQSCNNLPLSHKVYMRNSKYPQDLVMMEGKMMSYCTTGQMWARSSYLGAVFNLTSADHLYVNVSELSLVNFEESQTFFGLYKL

T5: soluble recombinant of human TL1A (His6, GS linker, Leu72-Leu251) (human, UniProt O95150 72-251)
T5 construct: also called His6-TL1A; hTL1A
T5 sequence: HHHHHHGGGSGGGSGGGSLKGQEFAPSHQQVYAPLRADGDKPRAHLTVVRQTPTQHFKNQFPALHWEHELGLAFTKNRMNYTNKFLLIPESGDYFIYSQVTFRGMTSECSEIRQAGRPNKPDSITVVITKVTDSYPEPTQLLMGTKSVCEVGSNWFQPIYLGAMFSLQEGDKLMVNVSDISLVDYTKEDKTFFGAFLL

T6: soluble recombinant of mouse TL1A (His6, GS linker, Ile94-Leu270) (mouse, UniProt Q5UBV8 76-252)
T6 sequence: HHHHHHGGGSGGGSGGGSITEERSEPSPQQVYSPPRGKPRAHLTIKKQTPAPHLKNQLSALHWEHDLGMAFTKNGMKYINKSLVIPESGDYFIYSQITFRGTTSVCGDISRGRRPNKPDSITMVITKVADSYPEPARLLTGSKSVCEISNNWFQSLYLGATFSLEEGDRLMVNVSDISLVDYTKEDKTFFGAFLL

T7: soluble recombinant of human LIGHT (His10, GS linker, Asp74-Val240) (human)
T7 chain: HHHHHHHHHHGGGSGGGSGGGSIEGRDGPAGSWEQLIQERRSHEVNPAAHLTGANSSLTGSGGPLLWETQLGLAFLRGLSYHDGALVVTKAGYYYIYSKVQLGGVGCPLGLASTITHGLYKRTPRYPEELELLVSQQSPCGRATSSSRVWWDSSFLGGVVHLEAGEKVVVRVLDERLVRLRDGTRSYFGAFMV

T8: soluble recombinant of cynomolgus monkey LIGHT (His10, GS linker, Asp74-Val240) (cynomolgus monkey)
T8 chain: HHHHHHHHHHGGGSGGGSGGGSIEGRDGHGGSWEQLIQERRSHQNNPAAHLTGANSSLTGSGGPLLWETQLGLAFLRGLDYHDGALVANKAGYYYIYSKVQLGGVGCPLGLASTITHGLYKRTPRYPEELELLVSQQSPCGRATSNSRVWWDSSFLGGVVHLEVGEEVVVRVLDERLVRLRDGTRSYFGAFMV

T9: soluble recombinant of cynomolgus monkey FasL (His6, Pro133-Leu280) (cynomolgus monkey, UniProt P63308 133-280)
T9 construct: also called His6-cynoFasL
T9 sequence: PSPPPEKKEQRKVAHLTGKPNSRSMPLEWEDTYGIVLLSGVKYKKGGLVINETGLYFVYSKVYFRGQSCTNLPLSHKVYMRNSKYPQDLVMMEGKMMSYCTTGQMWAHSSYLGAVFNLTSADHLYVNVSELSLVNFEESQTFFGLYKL

T10: soluble recombinant of mouse LIGHT (His10, GS linker, Asp72-Val239) (mouse)
T10 chain: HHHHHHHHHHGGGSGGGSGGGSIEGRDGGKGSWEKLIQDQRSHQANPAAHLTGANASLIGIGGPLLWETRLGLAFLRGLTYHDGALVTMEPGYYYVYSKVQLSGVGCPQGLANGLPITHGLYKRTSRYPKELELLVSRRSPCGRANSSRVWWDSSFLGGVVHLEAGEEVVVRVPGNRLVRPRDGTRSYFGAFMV

T11: soluble recombinant of human FasL (His6, Pro134-Leu281) (human, UniProt P48023 134-281)
T11 sequence: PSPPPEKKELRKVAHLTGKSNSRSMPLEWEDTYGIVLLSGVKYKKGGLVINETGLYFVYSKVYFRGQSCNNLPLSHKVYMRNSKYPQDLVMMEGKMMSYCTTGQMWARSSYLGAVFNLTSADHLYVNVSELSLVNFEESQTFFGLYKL

T12: soluble recombinant of mouse FasL (His6, Pro132-Leu279) (mouse, UniProt P41047 132-279)
T12 sequence: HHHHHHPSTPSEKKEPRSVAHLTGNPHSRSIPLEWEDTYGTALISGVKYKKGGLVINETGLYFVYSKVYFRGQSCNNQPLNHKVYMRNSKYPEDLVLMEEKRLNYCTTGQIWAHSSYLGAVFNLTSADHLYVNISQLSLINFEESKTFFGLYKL

T13: soluble recombinant of cynomolgus monkey TL1A (His6, GS linker, Leu72-Leu251) (cynomolgus monkey)
T13 construct: also called His6-cynoTL1A
T13 chain: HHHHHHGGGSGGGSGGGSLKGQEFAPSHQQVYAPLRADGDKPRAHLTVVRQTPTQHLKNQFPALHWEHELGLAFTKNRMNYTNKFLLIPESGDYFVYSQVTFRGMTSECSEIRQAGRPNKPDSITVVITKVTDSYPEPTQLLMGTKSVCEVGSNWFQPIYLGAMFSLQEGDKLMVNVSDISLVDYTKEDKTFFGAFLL


Experiments:
[1] = biological target: T1, soluble recombinant of human LIGHT …; experiment: BIAcore SPR
In short: (§1)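 Binding of each test molecule to soluble recombinant His-tagged human or cynomolgus monkey LIGHT, TL1A or FasL was analysed by surface plasmon resonance. Measurements used a BIAcore T-100 or T-200 instrument (GE Healthcare) in HBS-EP+ Buffer. The dissociation constant (Kd, nM) was derived from these measurements.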

[2] = biological target: T2, soluble recombinant of human TL1A …; experiment: BIAcore SPR
In short: as §1

[3] = biological target: T3, soluble recombinant of human FasL …; experiment: BIAcore SPR
In short: as §1

[4] = biological target: T4, Human His6 Fas Ligand/TNFSF6 (Cell …); experiment: SPR, binder captured, trimer ligand
Description: (§2) The binding activities to human DcR3 trimer ligands were analyzed by the SPR method. BIAcore T-100 (GE Healthcare) was used for measurement of the binding activities to human LIGHT and human TL1A, and BIAcore T-100 (GE Healthcare) or BIAcore T-200 (GE Healthcare) was used for measurement of the binding activity to human FasL. As the buffer, HBS-EP+Buffer was used.
(§3) After 10,000 RU of anti-human antibodies were immobilized to Series S Sensor Chip CM5 using Human Antibody Capture Kit (both of which are manufactured by GE Healthcare), various wild-type DcR3 controls and DcR3 variants were injected at the flow rate of 10 μL/min for 30 seconds and captured. Meanwhile, the buffer containing no protein was injected into a reference flow cell. Thereafter, as an analyte, each human DcR3 trimer ligand diluted to 0.02 to 80 nmol/L was injected at 30 μL/min for 2 minutes to monitor the binding, and subsequently the buffer was injected for 3 minutes to monitor dissociation. Then, 3 mol/L magnesium chloride was injected at 30 μL/min for 1 minute to perform a regeneration reaction.

[5] = biological target: T5, soluble recombinant of human TL1A …; experiment: SPR, binder captured, trimer ligand
Description: as §2, §3

[6] = biological target: T14, FLAG-LIGHT (FLAG tag, human LIGHT Asp74-Val240) (human, UniProt O43557 74-240); experiment: SPR, binder captured, trimer ligand
T14 construct: SEC trimer fraction; also called soluble recombinant FLAG-LIGHT trimer; soluble human LIGHT trimer
Description: as §2, §3

[7] = biological target: T6, soluble recombinant of mouse TL1A …; experiment: SPR, binder captured
Description: (§4) Regarding each of the various wild-type DcR3 controls and the DcR3 variants shown in Table 9, the binding activities to DcR3 ligands (LIGHT, TL1A, FasL) were analyzed by the SPR method using BIAcore T-100 (GE Healthcare). As the buffer, HBS-EP+Buffer was used.
(§5) After 10,000 RU of anti-human antibodies were immobilized to Series S Sensor Chip CM5 using Human Antibody Capture Kit (GE Healthcare), various wild-type DcR3 controls and DcR3 variants were injected at the flow rate of 10 μL/min for 30 seconds and captured. Meanwhile, the buffer containing no protein was injected into reference flow cells. Thereafter, as an analyte, DcR3 ligands of a human, a cynomolgus monkey or a mouse diluted to 0.08 to 80 nmol/L were injected at 10 μL/min for 2 minutes to monitor the binding, and subsequently the buffer was injected for 3 minutes to monitor dissociation. Then, 3 mol/L magnesium chloride was injected at 20 μL/min for 1 minute to perform a regeneration reaction. […] As a result of measurement, except for mouse LIGHT for which a trimer could not be produced, it was confirmed that various wild-type DcR3 controls and DcR3 variants bind to each DcR3 ligand of a human, a cynomolgus monkey or a mouse.

[8] = biological target: T5, soluble recombinant of human TL1A …; experiment: SPR, binder captured
Description: as §4, §5

[9] = biological target: T7, soluble recombinant of human LIGHT …; experiment: SPR, binder captured
Description: as §4, §5

[10] = biological target: T8, soluble recombinant of cynomolgus …; experiment: SPR, binder captured
Description: as §4, §5

[11] = biological target: T9, soluble recombinant of cynomolgus …; experiment: SPR, binder captured
Description: as §4, §5

[12] = biological target: T10, soluble recombinant of mouse LIGHT …; experiment: SPR, binder captured
Description: as §4, §5

[13] = biological target: T11, soluble recombinant of human FasL …; experiment: SPR, binder captured
Description: as §4, §5

[14] = biological target: T12, soluble recombinant of mouse FasL …; experiment: SPR, binder captured
Description: as §4, §5

[15] = biological target: T13, soluble recombinant of cynomolgus …; experiment: SPR, binder captured
Description: as §4, §5

Binder	Kd [1]	Kd [2]	Kd [3]	Kd [7]	koff [7]	kon [7]	Kd [8]	koff [8]	kon [8]	Kd [9]	koff [9]	kon [9]	Kd [10]	koff [10]	kon [10]	Kd [11]	koff [11]	kon [11]	binding result [12]	Kd [13]	other results
chimera A-Fc (g1S) (Fc fusion) ETFPPKYLHYDEETSHQLLCDKCPPGTYLKQHCTAKWKTVCAPCPPRHYTQFWNYLERCRYCNVLCGEREEEARACHATHNRACRCRTGFFAHAGFCLEHASCPPGAGVIAPGTPSQNTQCQPCPDGFFSNETSSKAPCRKHTNCSVFGLLLTQKGNATHDNICSGNSESTQ[omitted - human IgG1 Fc with C220S (EU numbers)]	0.18 nM	0.13 nM	0.65 nM	–	–	–	–	–	–	–	–	–	–	–	–	–	–	–	–	–	binding result [4]: binds; binding result [5]: binds; binding result [6]: binds
S195-Fc (Fc fusion, also called S195-Fc (IEGRMD g1S); 5195-Fc) VAETPTYPWRDAETGERLVCAQCPPGTFVQRPCRRDSPTTCGPCPPRHYTQFWNYLERCRYCNVLCGEREEEARACHATHNRACRCRTGFFAHAGFCLEHASCPPGAGVIAPGTPSQNTQCQPCPPGTFSASSSSSEQCQPHRNCTALGLALNVPGSSSHDTLCTSIEGRM[omitted - human IgG1 Fc with C220S (EU numbers)]	0.42 nM	0.38 nM	1.4 nM	1.2 nM	0.002 s⁻¹	1.7e+06 M⁻¹ s⁻¹	1.1 nM	0.00091 s⁻¹	840000 M⁻¹ s⁻¹	2.2 nM	0.00061 s⁻¹	280000 M⁻¹ s⁻¹	1.7 nM	0.00059 s⁻¹	340000 M⁻¹ s⁻¹	1.1 nM	0.00084 s⁻¹	750000 M⁻¹ s⁻¹	no binding (tested: 0.08 to 80 nmol/L)	1.7 nM	koff [13]: 0.0015 s⁻¹; kon [13]: 860000 M⁻¹ s⁻¹; koff [14]: 0.0056 s⁻¹; kon [14]: 580000 M⁻¹ s⁻¹; Kd [15]: 1.1 nM; koff [15]: 0.00088 s⁻¹; kon [15]: 790000 M⁻¹ s⁻¹
chimera A-Fc (IEGRMD g1S) (Fc fusion) ETFPPKYLHYDEETSHQLLCDKCPPGTYLKQHCTAKWKTVCAPCPPRHYTQFWNYLERCRYCNVLCGEREEEARACHATHNRACRCRTGFFAHAGFCLEHASCPPGAGVIAPGTPSQNTQCQPCPDGFFSNETSSKAPCRKHTNCSVFGLLLTQKGNATHDNICSGNSESTQKIEGRM[omitted - human IgG1 Fc with C220S (EU numbers)]	–	–	–	0.73 nM	0.0023 s⁻¹	3.1e+06 M⁻¹ s⁻¹	0.36 nM	0.0003 s⁻¹	830000 M⁻¹ s⁻¹	0.63 nM	0.00025 s⁻¹	390000 M⁻¹ s⁻¹	0.44 nM	0.00024 s⁻¹	540000 M⁻¹ s⁻¹	0.47 nM	0.0004 s⁻¹	840000 M⁻¹ s⁻¹	no binding (tested: 0.08 to 80 nmol/L)	0.76 nM	koff [13]: 0.00078 s⁻¹; kon [13]: 1e+06 M⁻¹ s⁻¹; Kd [14]: 47 nM; koff [14]: 0.0587 s⁻¹; kon [14]: 1.2e+06 M⁻¹ s⁻¹; Kd [15]: 0.38 nM; koff [15]: 0.00029 s⁻¹; kon [15]: 760000 M⁻¹ s⁻¹
